MIC of clinical N. gonorrhoeae isolates (2015-2017) by agar dilution on GC agar with 1% IsoVitaleX (ranges not stated); higher = less susceptible. No active / inactive call per row; the paper counts benzylpenicillin above 1 and ceftriaxone above 0.125 mg/L as resistant (EUCAST). The method is stated for benzylpenicillin and ceftriaxone and assumed for the other drugs. '<=' is inferred from pile-ups at the end values. Isolates are numbered anew.

Our source for the MIC values is the supplement of paper PMC6657886.

Holding throughout (assay): Agar dilution on enriched GC agar; resistance determinants by microarray.
Compound in one assay: CC1(C)S[C@@H]2[C@H](NC(=O)Cc3ccccc3)C(=O)N2[C@H]1C(=O)O [benzylpenicillin]
Compound in the next assay: CC[C@H]1OC(=O)[C@H](C)[C@@H](O[C@H]2C[C@@](C)(OC)[C@@H](O)[C@H](C)O2)[C@H](C)[C@@H](O[C@@H]2O[C@H](C)C[C@H](N(C)C)[C@H]2O)[C@](C)(O)C[C@@H](C)CN(C)[C@H](C)[C@@H](O)[C@]1(C)O [azithromycin]
Compound in the next assay: CN(C)[C@@H]1C(O)=C(C(N)=O)C(=O)[C@@]2(O)C(O)=C3C(=O)c4c(O)cccc4[C@@](C)(O)[C@H]3C[C@@H]12 [tetracycline]
Compound in a further assay: CN[C@@H]1[C@H](O)[C@H](NC)[C@H]2O[C@@]3(O)C(=O)C[C@@H](C)O[C@H]3O[C@@H]2[C@H]1O [spectinomycin]
Compound in the next assay: CO/N=C(\C(=O)N[C@@H]1C(=O)N2C(C(=O)O)=C(CSc3nc(=O)c(O)nn3C)CS[C@H]12)c1csc(N)n1 [ceftriaxone]

As to “Neisseria gonorrhoeae isolate 258 (blaTEM plasmid: no, gyrA: wild type, mtrR promoter: wild type, parC: wild type, penA: ins345Asp, ponA: wild type, porB: wild type, rpsJ: wild type, tetM plasmid: no)”, the MIC in the assay with benzylpenicillin came to 0.06 µg/mL; with azithromycin, 0.06 µg/mL; with tetracycline it was 0.25 µg/mL; with spectinomycin, 32 µg/mL; with ceftriaxone it was 0.004 µg/mL.

In the case of “Neisseria gonorrhoeae isolate 119 (blaTEM plasmid: no, gyrA: wild type, mtrR promoter: wild type, parC: wild type, penA: wild type, ponA: wild type, porB: wild type, rpsJ: wild type, tetM plasmid: no)”, the minimum inhibitory concentration (MIC) in the assay with benzylpenicillin was 0.03 µg/mL; with azithromycin it was 0.03 µg/mL; in the assay with tetracycline, 0.25 µg/mL; with spectinomycin, 64 µg/mL; in the assay with ceftriaxone, at most 0.002 µg/mL.

Take “Neisseria gonorrhoeae isolate 139 (blaTEM plasmid: no, gyrA: Phe91, Asn95, mtrR promoter: wild type, parC: wild type, penA: ins345Asp, ponA: Pro421, porB: wild type, rpsJ: Met57, tetM plasmid: no)”: the minimal inhibitory concentration (MIC) came to 0.25 µg/mL in the assay with benzylpenicillin; 0.004 µg/mL with azithromycin; 0.25 µg/mL with tetracycline; 32 µg/mL in the assay with spectinomycin; 0.015 µg/mL with ceftriaxone.

For “Neisseria gonorrhoeae isolate 132 (blaTEM plasmid: no, gyrA: Phe91, Asn95, mtrR promoter: -35delA, parC: Arg 87, Glu91, penA: ins345Asp, ponA: Pro421, porB: Lys120, Asn121, rpsJ: Met57, tetM plasmid: no)”, the MIC was 0.25 µg/mL in the assay with benzylpenicillin; 0.5 µg/mL in the assay with azithromycin; 2 µg/mL in the assay with tetracycline; 16 µg/mL with spectinomycin; 0.032 µg/mL with ceftriaxone.

As to “Neisseria gonorrhoeae isolate 505 (blaTEM plasmid: no, gyrA: Phe91, Asn 95, mtrR promoter: -35delA, parC: Arg 87, Glu91, penA: ins345Asp, ponA: wild type, porB: Asp120, Ala121, rpsJ: wild type, tetM plasmid: no)”, the MIC with benzylpenicillin was found to be 0.5 µg/mL; with azithromycin, 0.25 µg/mL; with tetracycline, 2 µg/mL; with spectinomycin, 16 µg/mL; in the assay with ceftriaxone, 0.008 µg/mL.

For “Neisseria gonorrhoeae isolate 192 (blaTEM plasmid: no, gyrA: wild type, mtrR promoter: wild type, parC: wild type, penA: wild type, ponA: wild type, porB: wild type, rpsJ: wild type, tetM plasmid: no)”, the minimal inhibitory concentration (MIC) was at most 0.015 µg/mL with benzylpenicillin; 0.12 µg/mL in the assay with azithromycin; 0.25 µg/mL in the assay with tetracycline; 16 µg/mL with spectinomycin; at most 0.002 µg/mL with ceftriaxone.

For “Neisseria gonorrhoeae isolate 50 (blaTEM plasmid: no, gyrA: Thr91, Gly95, mtrR promoter: wild type, parC: wild type, penA: wild type, ponA: wild type, porB: wild type, rpsJ: wild type, tetM plasmid: yes)”, the MIC in the assay with benzylpenicillin stood at 0.06 µg/mL; with azithromycin, 0.06 µg/mL; with tetracycline, 8 µg/mL; with spectinomycin, 32 µg/mL; with ceftriaxone, 0.004 µg/mL.

Take “Neisseria gonorrhoeae isolate 507 (blaTEM plasmid: yes, gyrA: Phe91, Ala95, mtrR promoter: wild type, parC: Asn87, Gly91, penA: ins345Asp, ponA: Pro421, porB: Lys 120, Gly121, rpsJ: Met57, tetM plasmid: yes)”: the MIC in the assay with benzylpenicillin worked out at 16 µg/mL; in the assay with azithromycin it was 0.25 µg/mL; with tetracycline, 32 µg/mL; with spectinomycin, 32 µg/mL; with ceftriaxone it was 0.03 µg/mL.

For the test system “Neisseria gonorrhoeae isolate 388 (blaTEM plasmid: no, gyrA: wild type, mtrR promoter: wild type, parC: wild type, penA: ins345Asp, ponA: wild type, porB: wild type, rpsJ: wild type, tetM plasmid: no)”, the MIC in the assay with benzylpenicillin was 0.03 µg/mL; with azithromycin, 0.03 µg/mL; with tetracycline, 0.06 µg/mL; in the assay with spectinomycin it was 4 µg/mL; with ceftriaxone it was at most 0.002 µg/mL.

Regarding “Neisseria gonorrhoeae isolate 154 (blaTEM plasmid: no, gyrA: wild type, mtrR promoter: wild type, parC: wild type, penA: ins345Asp, ponA: wild type, porB: wild type, rpsJ: wild type, tetM plasmid: no)”, the minimal inhibitory concentration (MIC) in the assay with benzylpenicillin was determined as 0.06 µg/mL; with azithromycin, 0.015 µg/mL; with tetracycline it was 0.12 µg/mL; in the assay with spectinomycin, 32 µg/mL; in the assay with ceftriaxone, 0.008 µg/mL.

Regarding “Neisseria gonorrhoeae isolate 188 (blaTEM plasmid: no, gyrA: Phe91, Gly95, mtrR promoter: wild type, parC: Arg87, Glu91, penA: ins345Asp, ponA: wild type, porB: wild type, rpsJ: Met57, tetM plasmid: no)”, the minimal inhibitory concentration (MIC) with benzylpenicillin is 0.25 µg/mL; with azithromycin it was 0.015 µg/mL; with tetracycline it was 0.5 µg/mL; with spectinomycin it was 32 µg/mL; with ceftriaxone, at most 0.002 µg/mL.

Take “Neisseria gonorrhoeae isolate 387 (blaTEM plasmid: no, gyrA: Phe91, Gly95, mtrR promoter: -35delA, parC: Arg87, Glu91, penA: ins345Asp, ponA: Pro421, porB: wild type, rpsJ: Met57, tetM plasmid: no)”: the MIC in the assay with benzylpenicillin is 0.25 µg/mL; with azithromycin, 0.03 µg/mL; with tetracycline, 4 µg/mL; with spectinomycin, 32 µg/mL; in the assay with ceftriaxone it was 0.008 µg/mL.

“Neisseria gonorrhoeae isolate 435 (blaTEM plasmid: no, gyrA: wild type, mtrR promoter: wild type, parC: wild type, penA: ins345Asp, ponA: wild type, porB: wild type, rpsJ: wild type, tetM plasmid: no)”: the MIC is 0.25 µg/mL with benzylpenicillin; 0.03 µg/mL in the assay with azithromycin; 0.25 µg/mL with tetracycline; 32 µg/mL with spectinomycin; at most 0.002 µg/mL in the assay with ceftriaxone.

In the case of “Neisseria gonorrhoeae isolate 474 (blaTEM plasmid: no, gyrA: wild type, mtrR promoter: wild type, parC: wild type, penA: ins345Asp, ponA: Pro421, porB: wild type, rpsJ: wild type, tetM plasmid: no)”, the MIC with benzylpenicillin is 0.12 µg/mL; with azithromycin, 0.06 µg/mL; with tetracycline, 0.06 µg/mL; with spectinomycin, 16 µg/mL; with ceftriaxone it was at most 0.002 µg/mL.

Consider “Neisseria gonorrhoeae isolate 197 (blaTEM plasmid: no, gyrA: Phe91, Asn 95, mtrR promoter: -35delA, parC: wild type, penA: ins345Asp, ponA: Pro421, porB: Asn120, Asp121, rpsJ: Met57, tetM plasmid: no)”, for which the minimum inhibitory concentration (MIC) in the assay with benzylpenicillin was determined as 2 µg/mL; with azithromycin, 0.25 µg/mL; with tetracycline it was 0.5 µg/mL; with spectinomycin, 8 µg/mL; in the assay with ceftriaxone, 0.03 µg/mL.

Turning to “Neisseria gonorrhoeae isolate 419 (blaTEM plasmid: no, gyrA: Phe91, Gly95, mtrR promoter: -35delA, parC: Arg87, Glu91, penA: ins345Asp, ponA: Pro421, porB: Lys 120, Gly121, rpsJ: Met57, tetM plasmid: no)”, the MIC came to 0.5 µg/mL with benzylpenicillin; 0.5 µg/mL in the assay with azithromycin; 4 µg/mL with tetracycline; 16 µg/mL with spectinomycin; 0.015 µg/mL with ceftriaxone.

As for “Neisseria gonorrhoeae isolate 333 (blaTEM plasmid: no, gyrA: Phe91, Asn95, mtrR promoter: wild type, parC: Arg87, Glu91, penA: ins345Asp, ponA: Pro421, porB: Asp120, Gly121, rpsJ: Met57, tetM plasmid: no)”, the minimal inhibitory concentration (MIC) in the assay with benzylpenicillin was 0.06 µg/mL; with azithromycin it was 0.25 µg/mL; in the assay with tetracycline, 0.06 µg/mL; with spectinomycin, 16 µg/mL; with ceftriaxone, at most 0.002 µg/mL.

For the test system “Neisseria gonorrhoeae isolate 260 (blaTEM plasmid: no, gyrA: wild type, mtrR promoter: wild type, parC: wild type, penA: wild type, ponA: wild type, porB: wild type, rpsJ: wild type, tetM plasmid: no)”, the minimal inhibitory concentration (MIC) with benzylpenicillin was at most 0.015 µg/mL; with azithromycin, 0.12 µg/mL; with tetracycline, 0.25 µg/mL; with spectinomycin it was 32 µg/mL; in the assay with ceftriaxone, at most 0.002 µg/mL.

In the case of “Neisseria gonorrhoeae isolate 458 (blaTEM plasmid: no, gyrA: Thr91, Gly95, mtrR promoter: wild type, parC: wild type, penA: ins345Asp, ponA: Pro421, porB: wild type, rpsJ: Met57, tetM plasmid: no)”, the minimal inhibitory concentration (MIC) came out at 0.5 µg/mL in the assay with benzylpenicillin; 0.06 µg/mL with azithromycin; 0.5 µg/mL in the assay with tetracycline; 12 µg/mL with spectinomycin; 0.015 µg/mL in the assay with ceftriaxone.

Take “Neisseria gonorrhoeae isolate 378 (blaTEM plasmid: no, gyrA: Phe91, Asn95, mtrR promoter: -35delA, parC: Arg87, Glu91, penA: ins345Asp, ponA: Pro421, porB: wild type, rpsJ: Met57, tetM plasmid: no)”: the minimal inhibitory concentration (MIC) came out at 0.5 µg/mL with benzylpenicillin; 0.25 µg/mL in the assay with azithromycin; 1 µg/mL in the assay with tetracycline; 32 µg/mL in the assay with spectinomycin; 0.015 µg/mL with ceftriaxone.

Take “Neisseria gonorrhoeae isolate 475 (blaTEM plasmid: no, gyrA: Thr91, Gly95, mtrR promoter: wild type, parC: wild type, penA: ins345Asp, ponA: wild type, porB: wild type, rpsJ: wild type, tetM plasmid: no)”: the minimum inhibitory concentration (MIC) with benzylpenicillin was 0.12 µg/mL; with azithromycin it was 0.06 µg/mL; with tetracycline, 0.12 µg/mL; in the assay with spectinomycin, 16 µg/mL; with ceftriaxone, at most 0.002 µg/mL.

Consider “Neisseria gonorrhoeae isolate 359 (blaTEM plasmid: no, gyrA: wild type, mtrR promoter: wild type, parC: wild type, penA: ins345Asp, ponA: Pro421, porB: wild type, rpsJ: wild type, tetM plasmid: no)”, for which the MIC with benzylpenicillin turned out to be 0.5 µg/mL; with azithromycin, 0.25 µg/mL; with tetracycline, 1 µg/mL; with spectinomycin, 16 µg/mL; with ceftriaxone, 0.015 µg/mL.

Consider “Neisseria gonorrhoeae isolate 113 (blaTEM plasmid: no, gyrA: wild type, mtrR promoter: wild type, parC: wild type, penA: wild type, ponA: wild type, porB: wild type, rpsJ: wild type, tetM plasmid: no)”, for which the minimum inhibitory concentration (MIC) was 0.03 µg/mL with benzylpenicillin; 0.25 µg/mL with azithromycin; 0.12 µg/mL in the assay with tetracycline; 32 µg/mL with spectinomycin; at most 0.002 µg/mL in the assay with ceftriaxone.

On to “Neisseria gonorrhoeae isolate 247 (blaTEM plasmid: no, gyrA: Phe91, Asn 95, mtrR promoter: -35delA, parC: Arg 87, Glu91, penA: wild type, ponA: Pro421, porB: Asn120, Asp121, rpsJ: Met57, tetM plasmid: no)”, for which the MIC with benzylpenicillin was 2 µg/mL; with azithromycin, 0.5 µg/mL; with tetracycline, 4 µg/mL; with spectinomycin it was 32 µg/mL; in the assay with ceftriaxone it was 0.008 µg/mL.

For the test system “Neisseria gonorrhoeae isolate 43 (blaTEM plasmid: no, gyrA: wild type, mtrR promoter: wild type, parC: wild type, penA: ins345Asp, ponA: wild type, porB: wild type, rpsJ: wild type, tetM plasmid: no)”, the MIC with benzylpenicillin worked out at 0.03 µg/mL; with azithromycin it was 0.06 µg/mL; with tetracycline it was 1 µg/mL; with spectinomycin it was 16 µg/mL; with ceftriaxone, 0.004 µg/mL.
